± gives the standard deviation of the averaged measurements. Some of the results follow.
These sequences were tested on PfAP2-G AP2 domain (GST-tagged) (assay: gcPBM binding intensity (ln(normalized median fluorescence intensity)); higher = stronger DNA binding).
How it was run: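 GST-tagged P. falciparum DNA-binding domains, expressed in E. coli (about 25 μg on average), were applied for 1 h to an Agilent 4 × 180k array of primer-extended double-stranded 36-bp intergenic genomic probes plus negative controls. The binding buffer was 1× PBS with 1% milk, 0.2 mg/ml BSA, 0.5% salmon testes DNA and 0.03% Triton X-100. Bound protein was detected with Alexa488 anti-GST antibody and scanned at 488 nm. Binding intensity is the highest Masliner-normalised natural-log median intensity across replicate spots of either probe orientation.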

Row | Sequence | gcPBM binding intensity (ln)
1 | TTTTTTTTTTTTTTTTTTAAACACCTCAAAAAAAAA [CACACA_negctrl_site807] | 9.89 ± 0.39
2 | TTGCATTGTCCATGCGCACACACTACTAGAATAATA [CACACA_site3678] | 10.8 ± 0.47
3 | TTACATATTATACGAAGTACGTACAAATACTTATAT [XGTACX_site8598] | 11.7 ± 0.81
4 | GCGAATAATATGGACATACACACATATACATACATA [CACACA_site2115] | 10.9 ± 0.55
5 | TATATATATTTTTGTGTGCACTATAATATGAAAATA | 10.6 ± 0.51
6 | TTTTTTTTTTTCTTCACACACAGTACTACTATTTAT [CACACA_site2409] | 11.3 ± 1
7 | ACCTTATTTAGTTATAGTACACAAAGTATTAAACAT [XGTACX_site8418] | 11.5 ± 0.81
8 | ATTTTTTTTTTTTTTTTCTTTTTTCTTCTTTTTTTT [CACACA_negctrl_site1223] | 9.65 ± 0.085
9 | ATATATATTATAAAATGTACAAATGTTATATAAAAT [XGTACX_site4750] | 10.9 ± 0.38
10 | TTTTTTTTTTTTTTATGTACATATATATATTTTATT [XGTACX_site6915] | 11.2 ± 0.98
11 | TCATTTATTGAGGAATGTACACGTAAAATTTAATAA [XGTACX_site4086] | 11.4 ± 0.8
12 | TATACATAAAAATGATGTACATATAATATATATATA [XGTACX_site3863] | 11.3 ± 0.76
13 | TTATTATTATAAAATTGTACTTGGTATATTAACATA [XGTACX_site5829] | 10.9 ± 0.64
14 | TTGTTTATTTGTAAAGCTAACAAGAAATGTGAATAT [CACACA_negctrl_site931] | 10.1 ± 0.099
15 | AACGAACACTATTACACACATACATACATATGTATG [CACACA_site1859] | 10.22 ± 0.014
16 | TATTTATAAATATAAACACACAACATTCTATGCATA [CACACA_site3243] | 9.82 ± 0.19
17 | ATATAAATATATTTTACACACAATGGAGAAAAAAAT [CACACA_site6450] | 10.2 ± 0.13
18 | GGATTAATATATTTACCACACACCCATTTCGATTTT [CACACA_site9200] | 10.2 ± 0.13
19 | ATCTTGAAGATTATTTGTACACAAAAGTTAAAATAT [XGTACX_site242] | 11.2 ± 0.82

Row | Sequence | gcPBM binding intensity (ln)
20 | TATATAATTATTTATTGTACACTCAAATCGATAAGG [XGTACX_site3216] | 11.3 ± 0.86
21 | AATGTATTATGTCTTCGTACACATAAATAAATAAAT [XGTACX_site4004] | 11 ± 0.64
22 | ATAATAAATGATAGCACACATATGTACATAAATACA [CACACA_site4634] | 11.5 ± 0.79
23 | TATCTTAACAATTAGTGTACAGATAACCAATTAAAA [XGTACX_site3184] | 11.3 ± 0.89
24 | AACATATAAAAATGTGCACACACACCCATATATATA [CACACA_site1525] | 10.4 ± 0.3
25 | CACATTATGTATCATACACACAAATAGATATATAAC [CACACA_site6434] | 10.32 ± 0.092
26 | TAAAATAAAAATATAGTGCACAGATTTTGATATTTT [GTGCAC_site9696] | 10.2 ± 0.2
27 | CTTTGTGGTATAGATACACACTATATTAAGATGAAC [CACACA_site5215] | 10.3 ± 0.28
28 | TTTTTTTTTTATGGTACACACACGCGTATGGTTGCA [CACACA_site1876] | 11.4 ± 0.91
29 | TTTAGAAATAAATACACACATACATTTTTGTATACA [CACACA_site718] | 9.85 ± 0.071
30 | TGAAGGTTTCAAAAACGTACAAAAAAAAATGTTAGT [XGTACX_site8803] | 11.2 ± 0.67
31 | AAAGGATATAATACCATACACACATTTATAAAATAA [CACACA_site1931] | 10.07 ± 0.035
32 | CAAATCAAAATTAATTAACACACAATTTTAATATTC [CACACA_site8641] | 9.7 ± 0.15
33 | TTCTTTGTAGTATATTAACACACAACTGTTTATAAT [CACACA_site9305] | 10.23 ± 0.085
34 | AAATAGAGAAATACAAGTACATACTAAACCAATCTA [XGTACX_site2780] | 11.2 ± 0.78
35 | TATAATGTTGATAATAGTACGTATGAGTTCAAAAAA [XGTACX_site988] | 11.1 ± 0.59
36 | GTTTATTAAACATTAGTGCAATTTTAATCCATTCTA | 9.815 ± 0.021
37 | TACCTACACTTTTGGAGTACAATTAAAAAAAAAAAA [XGTACX_site1403] | 11.5 ± 1.1
38 | TTTAAAGTAATAAAGTGTACAAAAATAAATTCAGCT [XGTACX_site8651] | 11.2 ± 0.67

Row | Sequence | gcPBM binding intensity (ln)
39 | ACTTTTATTCGCTTACGTACATATATTATATATTAT [XGTACX_site4459] | 11.4 ± 0.73
40 | AAAAGAAAATATATGTGTACTAAAATATATATATAT [XGTACX_site3817] | 11.5 ± 0.76
41 | TTAATCCTTTTTAAAAGTACACATATATATATATAT [XGTACX_site962] | 11.6 ± 1
42 | TATATATATATATAATGTACAGAAAAAAAAAAAAAA [XGTACX_site6141] | 10.8 ± 0.86
43 | AAATCATGTTGAAGGGGTACAAAATATGTAATGTTG [XGTACX_site6222] | 11.3 ± 0.83
44 | ATATTATATATTTGATGTACATTGAATGAGAGAGAA [XGTACX_site3324] | 11.1 ± 0.54
45 | TTATTAATTATATATAGTACACATTTCACAGATGGG [XGTACX_site2349] | 11.3 ± 0.86
46 | TGAACACATACATACACACACACAAAAAAAAAAAAA [CACACA_site392] | 10 ± 0.55
47 | CTTGTGCTTTATAGGGTGCACATTTTGTTTTGGTAA [GTGCAC_site9899] | 10.7 ± 0.72
48 | ATAAAAAGGTTTAAAAAAAAAAAAAAAAAAAAAAAA [CACACA_negctrl_site412] | 9.5 ± 0.35
49 | AAAATTATGCAGTAGGTGCAATACCCTCGGCTTTTT [GTGCAC_site9556] | 9.905 ± 0.049
50 | TATTTCAAATGTTATGTGCACATATTAATCCTACTT [GTGCAC_site9738] | 10.5 ± 0.28
51 | AATATCTGAAAATAAAGTACAAACATATTATAAATA [XGTACX_site5738] | 11.1 ± 0.73
52 | AATAATAATTTAAAAAGTACATTCTAATAAACACGT [XGTACX_site1444] | 11.2 ± 0.72
53 | TACTTATTTGATTGGGTGCATATATATAGTATGTAT [GTGCAC_site9845] | 10.3 ± 0.3
54 | TTATTTATGAGGGTGACACACAAAAGAGTGTTAAGA [CACACA_site277] | 10.4 ± 0.35
55 | AAAAAAAAACACGCATGTACATAAAAATAATCATAC [XGTACX_site1086] | 11.1 ± 0.56
56 | AAATAAAATAAAATAAAATAAAATAAAATAAAATAA [XGTACX_negctrl_site142] | 9.52 ± 0.042
57 | AATAATAATAGAAACACACACACATTTTTAAGAATA [CACACA_site6692] | 10.01 ± 0.014

— the supplement of paper PMC11417369
